# Experimental data from paper PMC4336329 (PLoS ONE, 2015).
# The campaign covered roughly 310,000 compounds. About 14,000 (4.5%) showed an effect of 50% or more. The effect is printed as a negative number. The list shows a part of the results.
# Target: human ether-à-go-go-related gene (hERG) potassium channel (human, UniProt Q12809)
# Test: primary screen, population patch clamp on CHO cells stably expressing hERG
# 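Further: peak tail current of the secondary pulse compared with the same well before compound.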
# human ether-à-go-go-related gene (hERG) potassium channel, sequence (Q12809 whole entry, looked up): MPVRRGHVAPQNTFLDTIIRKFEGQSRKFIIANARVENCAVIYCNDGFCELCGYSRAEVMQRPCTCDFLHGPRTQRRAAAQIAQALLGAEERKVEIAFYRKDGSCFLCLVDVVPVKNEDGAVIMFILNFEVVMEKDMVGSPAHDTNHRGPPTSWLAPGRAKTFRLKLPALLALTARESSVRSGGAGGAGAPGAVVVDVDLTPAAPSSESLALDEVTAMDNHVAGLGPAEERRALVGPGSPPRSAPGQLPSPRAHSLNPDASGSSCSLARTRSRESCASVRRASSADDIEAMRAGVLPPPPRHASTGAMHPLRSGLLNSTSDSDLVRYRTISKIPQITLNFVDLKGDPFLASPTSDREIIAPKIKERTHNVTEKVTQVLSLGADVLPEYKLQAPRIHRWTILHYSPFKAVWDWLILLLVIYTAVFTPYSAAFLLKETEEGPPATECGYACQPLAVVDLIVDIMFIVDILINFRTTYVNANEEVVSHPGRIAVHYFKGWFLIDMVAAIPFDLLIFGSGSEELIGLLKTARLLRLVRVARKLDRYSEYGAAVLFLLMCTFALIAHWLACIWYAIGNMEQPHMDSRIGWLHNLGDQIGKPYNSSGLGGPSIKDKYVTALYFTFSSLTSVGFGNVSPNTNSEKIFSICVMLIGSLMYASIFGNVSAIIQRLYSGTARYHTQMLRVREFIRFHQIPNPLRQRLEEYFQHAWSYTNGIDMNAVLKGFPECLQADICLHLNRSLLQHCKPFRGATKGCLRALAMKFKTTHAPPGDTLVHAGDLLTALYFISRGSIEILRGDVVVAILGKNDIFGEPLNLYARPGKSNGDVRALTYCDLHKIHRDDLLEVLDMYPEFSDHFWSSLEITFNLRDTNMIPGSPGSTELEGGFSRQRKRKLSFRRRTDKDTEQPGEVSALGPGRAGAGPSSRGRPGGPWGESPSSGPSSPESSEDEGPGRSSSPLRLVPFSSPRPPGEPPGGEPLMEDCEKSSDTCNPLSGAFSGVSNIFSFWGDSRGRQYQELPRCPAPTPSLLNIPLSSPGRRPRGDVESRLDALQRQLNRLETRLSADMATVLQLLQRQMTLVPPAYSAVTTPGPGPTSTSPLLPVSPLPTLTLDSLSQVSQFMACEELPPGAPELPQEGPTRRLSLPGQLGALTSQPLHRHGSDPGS
row,Compound,"hERG current change (%, negative = inhibition) at 10uM"
1,CC(=O)Nc1ccc(N2CCCC2)cc1,6.33%
2,C=CCSc1nnc(N2C(=O)C(O)=C(C(=O)c3ccco3)C2c2ccc(F)cc2)s1 (stereo not drawn),8.02%
3,N#Cc1nc(COc2ccc(-c3ccccc3)cc2)oc1NCCCN1CCOCC1,-44.4%
4,O=C(COC(=O)C1c2ccccc2Oc2ccccc21)NC1CCS(=O)(=O)C1 (stereo not drawn),12.5%
5,O=[N+]([O-])c1ccc(N2CCCCC2)cc1NCCOc1ccccc1,-2.17%
6,CC(NC(=O)c1ccc(NS(C)(=O)=O)cc1)c1ccccc1 (stereo not drawn),-14.8%
7,Cc1noc(C)c1S(=O)(=O)N1CCCC1C(=O)O (stereo not drawn),20%
8,Cc1nc(SC(C)C(=O)NC2CCCC2)c2ccccc2n1 (stereo not drawn),-15.8%
9,Cc1c(NC(=O)C2(c3ccccc3)CCOCC2)c(=O)n(-c2ccccc2)n1C,1.67%
10,Cc1c(C(=O)N(C)CCC#N)oc2ccc(S(=O)(=O)N3CCOCC3)cc12,10.1%
11,C/C(=N/N=C(\C)c1ccccc1O)c1ccccc1O,16.2%
12,COC(=O)c1ccc([C@@H]2C[C@H]3CN(Cc4cccnc4)C(=O)[C@]34CCCN24)cc1,-1.19%
13,CCOc1cc(-c2cc(-c3ccc(N)cc3)nc(N)c2C#N)ccc1O,-1.19%
14,CCCCC(=O)Nc1ccc(C(=O)OC2CCCCC2)cc1,10.9%
15,COc1ccc(OC)c(CC(=O)N2CCc3cc(OC)c(OC)cc3C2)c1,6.76%
16,Cc1cc([N+](=O)[O-])nn1CC(=O)Nc1cc(F)ccc1F,7.03%
17,COC(=O)c1ccccc1NC1=C/C(=N\S(=O)(=O)c2cccs2)c2ccccc2C1=O,6.32%
18,O=C(O)C1CCN(C(=O)CCN2C(=O)S/C(=C\c3ccccc3)C2=O)CC1,33.4%
19,CC(C)c1csc(CN2CCC(CO)(Cc3cccc(F)c3)CC2)n1,-17.3%
20,CCCOC(=O)NC1C(NC(=O)OCCC)N(C)C(=O)N1C (stereo not drawn),10.2%
21,O=C(NCCCn1ccnc1)C(=O)NCc1ccc(Cl)cc1,-32.5%
22,CCC(Sc1nc(C)cc(=O)[nH]1)C(=O)Nc1nnc(C)s1 (stereo not drawn),18.3%

row,Compound,"hERG current change (%, negative = inhibition) at 10uM"
1,CCN(CC(=O)Nc1c(F)cccc1F)C(=O)c1cc(S(=O)(=O)N2CCOCC2)ccc1N1CCCC1,-9.2%
2,CCOC(=O)C1=C(C)NC(C)=C(C(=O)OCC)C1c1cn(-c2ccccc2)nc1-c1ccco1,-1.05%
3,CCCCC(CC)CNCC(O)c1ccccc1 (stereo not drawn),9.27%
4,Cc1cc(C(=O)CN2CC(C)OC(C)C2)c(C)n1-c1ccccc1 (stereo not drawn),9.82%
5,Cc1ccc(OCCn2cnc3cc([N+](=O)[O-])ccc3c2=O)cc1,-8.19%
6,CN(Cc1c(C(=O)N2CCCCCCC2)nc2ccc(Cl)cn12)C1CCOC1 (stereo not drawn),35.4%
7,COc1ccc(NC(=O)CSc2nc3ccccc3c(=O)n2CCC(=O)N2CCCCC2)cc1,-69.2%
8,CN=C(Nc1cccnc1)c1cccc(C(F)(F)F)c1,7.21%
9,CC(C)(C)C1CCC(C(=O)Nc2ccc(N3CCOCC3)cc2N2CCOCC2)CC1 (stereo not drawn),-47.5%
10,Cc1cccc(C)c1NC(=O)C1c2ccccc2Oc2ccccc21,10.9%
11,COC(=O)c1ccc(S(=O)(=O)NCc2ccc(S(N)(=O)=O)cc2)n1C,15%
12,O=C(NCC1CCCO1)c1cc(-c2ccncc2)nc2ccc(S(=O)(=O)N3CCOCC3)cc12 (stereo not drawn),-24.5%
13,CCOC(=O)[C@H]1[C@H]2COc3ccccc3[C@@H]2N2C(=O)c3cc(OC)c(OC)cc3NC(=O)[C@@]12C,-12%
14,CCOCCn1c(SCc2ccccc2)nc2c1c(=O)[nH]c(=O)n2C,-14.9%
15,COC(=O)C1=C(C)N(CCc2c[nH]c3ccc(OC)cc23)C(=O)C1,8.98%
16,Cc1nn(C)c(C)c1CN(C)C(=O)c1cc2n(n1)C(C(F)(F)F)CC(c1cccs1)N2 (stereo not drawn),-2.89%
17,CCCCNC(=O)/C(=C\c1ccc([N+](=O)[O-])o1)NC(=O)c1ccccc1,-39.8%
18,COc1ccc(-c2noc(N3CCC(C(=O)N(C)c4ccccc4C)CC3)n2)cc1,-33.5%
19,CCOC(=O)c1cc(S(=O)(=O)NCc2ccc3c(c2)OCO3)cn1C,-11.4%
20,CCN(CC)S(=O)(=O)c1ccc(/C=C/C(=O)OCC(=O)N(C(C)C)C(C)C)cc1,13.7%
21,COc1cccc(NC(=O)CN2C(=O)CSc3ccc(S(=O)(=O)N4CCOCC4)cc32)c1,6.36%
22,COC(=O)C1=CN(CCOC23CC4CC(CC(C4)C2)C3)C=C(C(=O)OC)C1c1ccsc1,10%

row,Compound,"hERG current change (%, negative = inhibition) at 10uM"
1,CCc1nnc(NC(=O)c2ccc(S(=O)(=O)N(CCOC)CCOC)cc2)s1,9.67%
2,CCc1ccc(NC(=O)Cn2c(=O)n(CCC(=O)NC3CCN(Cc4ccccc4)CC3)c(=O)c3ccccc32)cc1,1.83%
3,CC(C)OC(=O)CC(NC(=O)OC(C)(C)C)c1ccccc1 (stereo not drawn),2.7%
4,CN(C)CCNC(=O)c1cccn(Cc2cccc(C(F)(F)F)c2)c1=O,-9.82%
5,COc1ccccc1NC(=O)C(C)Sc1nc2ccccc2c(=O)n1CC1CCCO1 (stereo not drawn),-37.2%
6,CC(C)c1ccc(OCC(=O)NCc2ccco2)cc1,-10.3%
7,COc1cc(SC)ccc1C(=O)NCCOc1ccc(F)cc1,-26.8%
8,CC1CCN(C(=O)CCNS(=O)(=O)c2ccc(Cl)cc2)CC1,-8.45%
9,Cc1ccc(S(=O)(=O)N2CCN(C(=O)N3CCOCC3)CC2)cc1C,6.89%
10,S=C1NC2CCCCC2N1 (stereo not drawn),26.5%
11,COc1ccccc1C(=O)NCCC(=O)NCCCSc1ccccc1,-17.7%
12,Nc1nc(-c2ccc(Cl)cc2)cc(C(F)(F)F)n1,13.1%
13,COc1ccc2c(CC(=O)Nc3ccc(N4CCOCC4)cc3)coc2c1,15%
14,Cc1cccc(NC(=O)CSc2nnc([C@@H](N)Cc3c[nH]c4ccccc34)o2)c1C.Cl,-11.4%
15,Cc1cc(N=Nc2ccccc2)c(NCC(O)C(O)C(O)CO)cc1C (stereo not drawn),-24.1%
16,N/C(Cc1ccc([N+](=O)[O-])cc1)=N\OC(=O)Cc1ccccc1,-50.7%
17,Cc1ccc(C2CC(c3ccc(Br)cc3)=NN2C(=O)CSC2=NN3CCCC(=O)N=C3S2)cc1 (stereo not drawn),17.1%
18,CCOC(=O)C1C(=O)CC(C)(O)C(C(=O)OCC)C1c1ccc(N(CC)CC)cc1 (stereo not drawn),1.98%
19,CS(=O)(=O)N1CCC(c2noc(-c3ccc(C(F)(F)F)cc3)n2)CC1,-1.74%
20,COc1ccccc1N(Cc1cc(=O)[nH]c2ccccc12)C(C)=O,15.4%
21,CC(=O)N1SC(N)=NC1c1ccccc1 (stereo not drawn),2.4%
22,O=C(COc1ccc(Cl)cc1Cl)Nc1ccc(CN2CCOCC2)cc1,15.4%

row,Compound,"hERG current change (%, negative = inhibition) at 10uM"
1,CCCCC1(Cc2cccc([N+](=O)[O-])c2)C(=O)N(c2ccccc2)N(c2ccccc2)C1=O,18.4%
2,CCOc1ccccc1N1CCN(C(=O)c2ccccc2)CC1,11%
3,Cc1ccc(NC(=O)NNC(=O)c2snnc2C)cc1,2.71%
4,CC(=O)NC(=S)Nc1ccccc1F,30.4%
5,O=C(CC1S/C(=N/N=C/c2cccs2)NC1=O)Nc1ccc(Cl)c(Cl)c1 (stereo not drawn),9.99%
6,CN(CCN1CCOCC1)Cc1nc(-c2ccccc2)no1,10.4%
7,CC(=O)Cn1cnc2c(cnn2-c2ccc(C)c(C)c2)c1=O,-4.16%
8,CCc1ccc(S(=O)(=O)Nc2cc3c(cc2N2CCOCC2)n(C)c(=O)c(=O)n3C)cc1,-32.1%
9,O=C1OCC(CO)(CO)N=C1NNc1cc(Cl)ccc1Cl,5.41%
10,O=C(CSc1nc2ccc(Cl)cc2[nH]1)c1c[nH]c2ccccc12,26.8%
11,OCCNc1nc(Nc2ccc(Cl)cc2)nc(N2CCCC2)n1,-15.1%
12,COc1cccc(OC)c1C(=O)Nc1c(C)n(C)n(-c2ccccc2)c1=O,5.31%
13,Cc1ccccc1-c1ccc(=O)n(CC(=O)Nc2ccc(N3CCOCC3)cc2)n1,4.89%
14,O=C(Nc1ccccc1)C1CCN(c2nccs2)CC1,-6.38%
15,O=[N+]([O-])c1ccccc1/C=N/NC1=NS(=O)(=O)c2ccccc21,-1.94%
16,CCN(CCNC(=O)C1CC(=O)N(CCc2ccccc2)C1)c1ccccc1 (stereo not drawn),0.353%
17,CC(=O)c1ccc(NCCC(=O)c2ccccc2)cc1,-4.19%
18,Cc1occc1C(=O)N/N=C/c1ccccc1[N+](=O)[O-],-6.74%
19,O=C(O)C1(P(=O)(c2ccc(Cl)cc2)c2ccc(Cl)cc2)CC1,14.8%
20,C=CCOC(=O)C(C#N)c1nc2ccccc2nc1N1CCN(c2ccccc2OCC)CC1 (stereo not drawn),8.71%
21,COc1ccc(N(CC(=O)NCCSc2ccccn2)S(=O)(=O)c2ccccc2)c(OC)c1,17.1%
